Results on 18 sequences are retold here after article PMC12820563.

The other results are listed elsewhere or left out. The list includes weakly bound sequences.

The target of this experiment is T1, MBP-FoxP3dN (UniProt Q99JB6).
T1 sequence: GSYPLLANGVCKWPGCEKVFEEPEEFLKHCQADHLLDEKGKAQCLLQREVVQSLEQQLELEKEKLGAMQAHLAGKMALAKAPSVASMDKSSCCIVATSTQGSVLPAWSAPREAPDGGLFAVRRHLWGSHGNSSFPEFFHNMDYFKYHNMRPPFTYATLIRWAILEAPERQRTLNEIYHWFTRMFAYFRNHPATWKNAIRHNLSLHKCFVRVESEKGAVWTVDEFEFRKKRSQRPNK
The experiment can be described thus: PD-seq (MBP pull-down with sequencing). The following applies: 20 mM Tris-HCl pH 7.5, 100 mM NaCl, 1.5 mM MgCl2, 0.4 uM protein, 0.1 uM dsDNA library, 30 min, room temperature, amylose pull-down; high values mean tight binding; double strand, one strand shown.
On to “GATGATTGTTCTCCCAGCTGATGAATTAAATTTCTCGAGTAAACAAATTTTCCTAATCTTTCTGTTCAAGCGCCATCTAC”, for which the binding signal (RPM ratio (pull-down/input)) was 0.664.

“GATGATTGTTCTCCCAGCTGATGAATTGTACGTATCGAGTAAACAAATTTTCCTAATCTTTCTGTTCAAGCGCCATCTAC”: the binding signal (RPM ratio (pull-down/input)) amounted to 0.769.

“GATGATTGTTCTCCCAGCTGATGAATTGCATTAATCGAGTAAACAAATTTTCCTAATCTTTCTGTTCAAGCGCCATCTAC”: the binding signal (RPM ratio (pull-down/input)) worked out at 1.69.

For “GATGATTGTTCTCCCAGCTGATGAATTTCTGGTTTCGAGTAAACAAATTTTCCTAATCTTTCTGTTCAAGCGCCATCTAC”, the binding signal (RPM ratio (pull-down/input)) came out at 0.411.

Take “GATGATTGTTCTCCCAGCTGATGAATTGCATCTTTCGAGTAAACAAATTTTCCTAATCTTTCTGTTCAAGCGCCATCTAC”: the binding signal (RPM ratio (pull-down/input)) amounted to 5.4.

For the sequence “GATGATTGTTCTCCCAGCTGATGAATTAAACACATCGAGTAAACAAATTTTCCTAATCTTTCTGTTCAAGCGCCATCTAC”, the binding signal (RPM ratio (pull-down/input)) amounted to 0.785.

On to “GATGATTGTTCTCCCAGCTGATGAATTAATGAACTCGAGTAAACAAATTTTCCTAATCTTTCTGTTCAAGCGCCATCTAC”, for which the binding signal (RPM ratio (pull-down/input)) turned out to be 0.287.

For the sequence “GATGATTGTTCTCCCAGCTGATGAATTGACCACTTCGAGTAAACAAATTTTCCTAATCTTTCTGTTCAAGCGCCATCTAC”, the binding signal (RPM ratio (pull-down/input)) was determined as 0.403.

As for “GATGATTGTTCTCCCAGCTGATGAATTGAGATTGTCGAGTAAACAAATTTTCCTAATCTTTCTGTTCAAGCGCCATCTAC”, the binding signal (RPM ratio (pull-down/input)) was determined as 1.08.

Regarding “GATGATTGTTCTCCCAGCTGATGAATTGCATTCATCGAGTAAACAAATTTTCCTAATCTTTCTGTTCAAGCGCCATCTAC”, the binding signal (RPM ratio (pull-down/input)) came out at 4.9.

Consider “GATGATTGTTCTCCCAGCTGATGAATTTCTGATGTCGAGTAAACAAATTTTCCTAATCTTTCTGTTCAAGCGCCATCTAC”, for which the binding signal (RPM ratio (pull-down/input)) amounted to 0.407.

With “GATGATTGTTCTCCCAGCTGATGAATTACGGTTTTCGAGTAAACAAATTTTCCTAATCTTTCTGTTCAAGCGCCATCTAC”, the binding signal (RPM ratio (pull-down/input)) stood at 0.844.

For “GATGATTGTTCTCCCAGCTGATGAATTCGATGGTTCGAGTAAACAAATTTTCCTAATCTTTCTGTTCAAGCGCCATCTAC”, the binding signal (RPM ratio (pull-down/input)) was 2.35.

As for “GATGATTGTTCTCCCAGCTGATGAATTCTAGCCTTCGAGTAAACAAATTTTCCTAATCTTTCTGTTCAAGCGCCATCTAC”, the binding signal (RPM ratio (pull-down/input)) came out at 1.89.

With “GATGATTGTTCTCCCAGCTGATGAATTTAACAAATCGAGTAAACAAATTTTCCTAATCTTTCTGTTCAAGCGCCATCTAC”, the binding signal (RPM ratio (pull-down/input)) worked out at 0.242.

With “GATGATTGTTCTCCCAGCTGATGAATTGCGAGGGTCGAGTAAACAAATTTTCCTAATCTTTCTGTTCAAGCGCCATCTAC”, the binding signal (RPM ratio (pull-down/input)) came to 0.611.

Take “GATGATTGTTCTCCCAGCTGATGAATTGGGAAAATCGAGTAAACAAATTTTCCTAATCTTTCTGTTCAAGCGCCATCTAC”: the binding signal (RPM ratio (pull-down/input)) is 0.17.

As for “GATGATTGTTCTCCCAGCTGATGAATTCTGCCCCTCGAGTAAACAAATTTTCCTAATCTTTCTGTTCAAGCGCCATCTAC”, the binding signal (RPM ratio (pull-down/input)) amounted to 1.72.
